Screen size: about 310,000 compounds; about 11,000 (3.5%) were called active. This list was built around the results that the source calls inconclusive (neither active nor inactive); the mix of calls is not that of the screen. The call rests on the fitted dose curve; in most records, active means well fitted inhibition curve with a large enough effect; inconclusive means small, poorly fitted or top-dose-only effect, or effect the other way; inactive means flat fitted curve, though single readings scatter. No potency is given beside an inconclusive call; the fits are too rough.
Assay: VP16 counterscreen qHTS for inhibitors of ROR gamma transcriptional activity;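 further: Gal4-VP16 expression switched on by copper sulfate through the metallothionein promoter; nearly all actives have a fitted effect of over 50% in size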
Conditions: Drosophila S2 Gal4-VP16 UAS-luciferase, luminescence, 20 h; series mostly up to 53.6 µM
For `COCCN(C(=O)CCC(=O)Nc1nccs1)C(C(=O)NC(C)(C)C)c1ccc(Cl)cc1` (stereo unspecified), the Potency was “inactive”.
With `CSc1ccccc1NC(=O)c1cc(C2CC2)on1` the Potency was inconclusive [inhibitor, single point].
With `CC(=O)c1cccc(S(=O)(=O)N2CCC(c3nc4ccccc4[nH]3)CC2)c1` the Potency was “inactive”.
For `Cc1ccnc(SCC(=O)N2CCc3ccccc32)n1`, the Potency was “inactive”.
For `S=c1nccc(-c2ccc3c(c2)CCO3)[nH]1`, the Potency was active: 6.31 µM.
With `O=C(CCc1ccccn1)N1CCCC(N2CCN(c3cccc(C(F)(F)F)c3)CC2)C1` (stereo unspecified) the Potency was “inactive”.
With `CC(O/N=C/c1ccccc1OC(F)F)C(=O)Nc1cccc(S(=O)(=O)N2CCOCC2)c1` (stereo unspecified) the Potency was “inactive”.
In the case of `NC(=S)N/N=C/c1cccc(Br)c1`, the Potency is reported as inconclusive [inhibitor, single point].
For `O=C(Nc1ccc(CN2CCOCC2)cc1)c1ccc(-c2ccc(Cl)cc2Cl)o1`, the Potency was “inactive”.
With `CN(C)C(=O)c1ccc(NC(=O)c2cncc(Br)c2)cc1` the Potency was inconclusive [activator, partial curve].
In the case of `CC(=O)c1ccc(NC(=S)NCCCN2CCOCC2)cc1`, the Potency is reported as “inactive”.
With `C=CCn1c(CSCc2ccccc2)nnc1SCC(=O)N1CCN(c2ccccc2)CC1` the Potency was inconclusive [inhibitor, partial curve, poor fit].
With `Cc1cc(O)c(C(C)C)cc1C1(c2cc(C(C)C)c(O)cc2C)OC(=O)c2ccccc21` the Potency was active: 12.6 µM.
In the case of `COc1ccc2[nH]c(-c3ccccc3)c(CCNC(C)=O)c2c1`, the Potency is reported as “inactive”.
With `CSc1cccc(NC(=O)c2ccc(NC3=NC4CS(=O)(=O)CC4S3)cc2)c1` (stereo unspecified) the Potency was “inactive”.
In the case of `CCCc1nc2ccc(NC(=O)c3cccs3)cc2c(=O)n1Cc1ccc(Cl)cc1`, the Potency is reported as “inactive”.
In the case of `CCOc1cc(C2C(C#N)=C(N)Oc3n[nH]c(C)c32)ccc1OCCN1CCOCC1` (stereo unspecified), the Potency is reported as inconclusive [inhibitor, single point].
In the case of `O=C1C=C(Nc2ccccc2)C(=O)c2ccccc21`, the Potency is reported as inconclusive [activator, full curve].
With `O=C(/C=C/c1ccc2c(c1)OCO2)N1CCN(c2ccc(Cl)cc2)CC1` the Potency was inconclusive [inhibitor, partial curve].
In the case of `COc1ccc(-c2nc(NC(=O)c3ccc(OCC(=O)Nc4ccc(F)cc4)c(OC)c3)sc2C)cc1`, the Potency is reported as active: 20 µM.
In the case of `O=C(CCN1C(=O)[C@@H]2Cc3ccccc3CN2C1=O)NCc1ccc(Cl)cc1`, the Potency is reported as “inactive”.
With `CC(C)N(C(=O)COC(=O)c1ccccc1C(=O)c1ccc(Cl)c([N+](=O)[O-])c1)C(C)C` the Potency was inconclusive [activator, single point].
In the case of `COc1cccc(NC(=S)N(CCc2c(C)[nH]c3ccc(C)cc23)Cc2cccs2)c1`, the Potency is reported as inconclusive [inhibitor, partial curve].
With `Cn1c(N2CCN(C(c3ccccc3)c3ccccc3)CC2)nc2ccccc21` the Potency was active: 12.6 µM.
For `CC(C)(C)c1ccc(C(=O)CCCN2CCC(OC(c3ccccc3)c3ccccc3)CC2)cc1`, the Potency was active: 11.2 µM.
With `CC1=NNC(=O)C1CC(=O)N/N=C/C=C/c1ccccc1` (stereo unspecified) the Potency was “inactive”.
In the case of `CCC(=O)N1CCc2cc(S(=O)(=O)N3CCCC3)ccc21`, the Potency is reported as “inactive”.
In the case of `Cc1cc2ncn(/N=C/c3ccc([N+](=O)[O-])o3)c2cc1C`, the Potency is reported as inconclusive [inhibitor, single point].
With `CCNC(=S)Nc1cc(Cl)ccc1Oc1ccccc1` the Potency was active: 10 µM.
In the case of `COc1cc(-c2n[nH]c(=S)n2Cc2ccccc2)cc(OC)c1OC`, the Potency is reported as “inactive”.
For `Nc1cc(-c2ccccc2)ccc1O`, the Potency was inconclusive [inhibitor, single point].
In the case of `O=C(NC(=S)NNC(=O)c1cccs1)c1ccco1`, the Potency is reported as inconclusive [inhibitor, single point].
For `COc1ccc(Nc2ccc(C(F)(F)F)cc2[N+](=O)[O-])cn1`, the Potency was “inactive”.
With `Cn1c(COc2ccc(Br)cc2)nnc1SC1CCc2ccccc2C1=O` (stereo unspecified) the Potency was inconclusive [inhibitor, single point].
For `Cc1occc1C(=O)NNC(=S)Nc1cccc([N+](=O)[O-])c1`, the Potency was “inactive”.
In the case of `COc1cccc(-c2coc3c(C)c4oc(=O)c(CCC(=O)O)c(C)c4cc23)c1`, the Potency is reported as “inactive”.
With `Cc1ccccc1-c1n[nH]c(=S)n1C` the Potency was active: 7.94 µM.
For `Cc1c(Cc2ccccc2)c(=O)oc2cc(OCC(=O)N3CCC(C(N)=O)CC3)ccc12`, the Potency was “inactive”.
For `COCC(=O)Nc1ccccc1C(=O)Nc1ccc(OC)cc1`, the Potency was “inactive”.
With `COc1cc(-c2coc3cc(O[C@H]4OC(CO)C(O)C(O)C4O)c(OC)c(O)c3c2=O)cc(O)c1OC` (stereo partly specified) the Potency was “inactive”.
With `CCN(CC)C(=O)Oc1ccc(Cl)c2cccnc12` the Potency was inconclusive [activator, single point].
With `O=C(O)CSCc1nc2ccccc2s1` the Potency was inconclusive [inhibitor, partial curve].
In the case of `O=C(/C=C(\O)c1ccccc1)C(=O)NNC(=O)c1ccccc1`, the Potency is reported as inconclusive [inhibitor, partial curve].
In the case of `COc1ccccc1CNC(=O)c1oc2ccccc2c1C`, the Potency is reported as “inactive”.
With `COc1cc(CN2CC(=O)N(c3ccccc3Cl)C2=S)cc(OC)c1OC` the Potency was inconclusive [inhibitor, single point].
For `Cc1cc(NC(=O)C2CCCC2)n(-c2nc3ccccc3[nH]2)n1`, the Potency was active: 1.41 µM.
With `CN1/C(=C\C(=O)COC(=O)c2ccc(O)c(O)c2)C(C)(C)c2ccccc21` the Potency was inconclusive [inhibitor, single point].
With `C=CCc1c(C)nc(SC)nc1Nc1ccc(C)cc1` the Potency was “inactive”.
In the case of `CC(=O)c1cnn(-c2c(Cl)cc(Cl)cc2Cl)c1C`, the Potency is reported as “inactive”.
With `CC(C)c1ccc(NC2CCCN(C(=O)CCn3cnnn3)C2)cc1` (stereo unspecified) the Potency was “inactive”.
In the case of `Cc1c(N2C(=O)/C(=C\c3ccccc3O)SC2=S)c(=O)n(-c2ccccc2)n1C`, the Potency is reported as inconclusive [inhibitor, single point].
In the case of `COCCCNC(=O)Cn1cnc2sc(C)c(S(=O)(=O)N3CCN(c4ccccc4OC)CC3)c2c1=O`, the Potency is reported as “inactive”.
In the case of `NCCc1cnc(-c2cccc(C(F)(F)F)c2)[nH]1`, the Potency is reported as “inactive”.
In the case of `Cc1ccc2c(CC(=O)N3CCN(c4ccccc4)CC3)coc2c1`, the Potency is reported as “inactive”.
With `O=C1C(C2=C(O)c3ccccc3C2=O)=Nc2ccccc21` the Potency was inconclusive [inhibitor, single point].
In the case of `O=C(OCc1ccc(F)cc1)c1ccc2ccccc2n1`, the Potency is reported as “inactive”.
For `N#CCCN(Cc1cccnc1)S(=O)(=O)c1ccc(S(=O)(=O)N2CCCCCC2)cc1`, the Potency was “inactive”.
With `O=[N+]([O-])c1cc(S(=O)(=O)C(F)(F)F)ccc1Sc1nc2ccccc2s1` the Potency was active: 6.31 µM.
In the case of `CC1=Cc2ccccc2C(C#N)N1C(=O)c1ccccc1` (stereo unspecified), the Potency is reported as active: 12.6 µM.
In the case of `O=C(CCn1c(=O)c2cccn2c2cccnc21)N1CCN(c2cccc(Cl)c2)CC1`, the Potency is reported as inconclusive [inhibitor, single point].
In the case of `CC(C)CCSc1nc2c(c(=O)[nH]c(=O)n2C)n1CCCc1ccccc1`, the Potency is reported as “inactive”.
In the case of `Fc1ccc(Cn2nnnc2C(c2cccs2)N2CCCCCC2)cc1` (stereo unspecified), the Potency is reported as inconclusive [inhibitor, single point].
For `COc1cc([N+](=O)[O-])ccc1NC(=O)CCCOc1ccccc1`, the Potency was inconclusive [inhibitor, single point].
With `CCOc1ccc(/C=C/c2[nH]c(=O)[nH]c(=O)c2[N+](=O)[O-])cc1` the Potency was “inactive”.
In the case of `CNC(=O)Nc1cccc(-c2cc(-c3c(Cl)cccc3Cl)no2)c1`, the Potency is reported as inconclusive [inhibitor, single point].
With `CCC(=C/c1sc2ccc3ccccc3c2[n+]1C)/C=C1\Sc2ccc3ccccc3c2N1C` the Potency was active: 1 µM.
For `CC(=O)Oc1ccc(Cl)cc1/C=C/c1cc(OC(C)=O)c2ccccc2n1`, the Potency was inconclusive [activator, single point].
In the case of `Cc1ccsc1/C=N/Nc1nc2ccccc2s1`, the Potency is reported as active: 0.891 µM.
For `CCCn1c(-c2ccc(F)cc2)nc2c(NCCCCN(CC)CC)nc(C)nc21`, the Potency was “inactive”.
With `CC(C)NC(=O)c1cc2c(-c3ccc(Cl)cc3)nn(C)c2s1` the Potency was “inactive”.
For `CC(NC(=O)c1c(O)c2ccccc2n(C)c1=O)c1ccccc1` (stereo unspecified), the Potency was inconclusive [inhibitor, partial curve, poor fit].
With `CCOC(=O)/C(C)=C1\NC(C)(C)Cc2ccccc21` the Potency was “inactive”.
In the case of `CN(Cc1nc(-c2ccncc2)no1)S(=O)(=O)c1ccc(Br)cc1`, the Potency is reported as “inactive”.
With `CCOC(=O)C1CSC(CC(=O)Nc2ccc(Cl)c(Cl)c2)C(=O)N1` (stereo unspecified) the Potency was inconclusive [inhibitor, single point].
With `CCC(CC)C(=O)c1c[nH]c(C(=O)NCc2ccccc2OC)c1` the Potency was inconclusive [inhibitor, single point].
With `CN(C)c1ccc([C@@H]2[C@@H]([N+](=O)[O-])[C@H]3C=Cc4ccccc4N3[C@H]2C(=O)c2ccc(Cl)cc2)cc1` the Potency was inconclusive [inhibitor, single point].
In the case of `Fc1ccc(CSc2nnc(-c3cccnc3)o2)cc1`, the Potency is reported as inconclusive [activator, partial curve].
For `Cc1cccc(N2CCN(C(=O)C3CCN(c4nnc(-n5cccc5)s4)CC3)CC2C)c1` (stereo unspecified), the Potency was inconclusive [inhibitor, single point].
In the case of `COc1ccccc1NC(=O)CC1Nc2ccccc2NC1=O` (stereo unspecified), the Potency is reported as “inactive”.
With `C=C(C)COc1ccc(-c2n[nH]c(C)c2-c2ccc(OC)c(OC)c2)c(O)c1` the Potency was active: 7.08 µM.
In the case of `Cc1ccc(NC(=O)c2cc(S(=O)(=O)NCCC3=CCCCC3)ccc2F)cc1`, the Potency is reported as inconclusive [inhibitor, partial curve, poor fit].

From PubChem BioAssay AID2546 (National Center for Advancing Translational Sciences (NCATS), 2010)
Potency means the concentration at half of the fitted maximal effect; tags describe the fitted curve by direction and shape.
